PubChem BioAssay AID493208 (National Center for Advancing Translational Sciences (NCATS), 2011)
Out of some 44,000 compounds screened, about 340 (0.77%) were called active. Roughly 5% stayed inconclusive and do not appear here. Calls come from the whole dose curve; as a rule, active = well fitted inhibition curve with a large enough effect; inconclusive = small, poorly fitted or top-dose-only effect; inactive = flat fitted curve, though single readings scatter. This is one part of the list.

Experiment: Acumen qHTS Assay for Inhibitors of the mTORC1 Signaling Pathway in MEF (Tsc2-/-, p53-/-) Cells: Sytravon;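 note: plate controls were DMSO for no effect and rapamycin for full effect; nearly all actives have a fitted effect of over 50% in size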
Settings: phospho-rpS6 immunofluorescence/PI, 24 h; series mostly up to 38.3 µM; activity change, negative = inhibition: at the top concentration
Method in brief: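 Tsc2-/-, p53-/- MEFs (empty-vector stable line) in DMEM + 10% FBS were treated with compounds 24 h at 37 degree Celsius, fixed, and immunostained for phospho-rpS6 (Alexa-488) with propidium iodide counterstain. Laser-scanning cytometry gave % positive cells, normalized against 7.5 nM rapamycin and DMSO.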

Structure (SMILES)	activity change, negative = inhibition
Cc1cc(C)cc(-n2c(C)cc(C(=O)C(=O)Nc3nnc(C)s3)c2C)c1	inactive: 1.62%
CCOc1ccccc1CNC(=O)c1ccc(NC(=O)N2CC(C)Sc3ccccc32)cc1 (stereo not given)	inactive: 1.59%
O=C(NC1(C(F)(F)F)C(=O)Nc2c1c(=O)[nH]c(=O)n2-c1ccccc1)c1ccccc1 (stereo not given)	inactive: -5.02%
CCCN(CCC)C(=O)Cn1c(SCc2cccc(C(F)(F)F)c2)nc2cccnc21	inactive: 1.2%
CCOc1ccc(C(=O)NCc2nc3cccnc3n2Cc2cccc(OC)c2)cc1	inactive: -11%
N#Cc1ccccc1NC(=O)C(=O)NCCc1csc2nc(-c3cccc(F)c3)nn12	inactive: 1.78%
COc1ccc(OC)c(CNC(=O)CN(c2ccc(C)cc2)S(=O)(=O)N(C)C)c1	inactive: -3.94%
Cc1cccc(NC(=O)N2CCN(C)c3ncccc32)c1C	inactive: 2.55%
Cc1cccc(OCCSc2nc3ccccc3n2CC(=O)N2CCOCC2)c1C	inactive: 0.311%
O=S(=O)(Nc1cccc(-c2ccc(N3CCCC3)nn2)c1)c1cc(F)ccc1F	inactive: -1.06%
CCOc1ccc(S(=O)(=O)Nc2ccc(OC)c(Cl)c2)c2cccnc12	inactive: -9.46%
Cc1ccc(NC(=O)C2CCCN(S(=O)(=O)c3c(C)nn(C)c3C)C2)c(C)c1 (stereo not given)	inactive: 3.4%
CCOc1ccc(C2C(C(N)=O)=C(C)Nc3nc(-c4cccc(Cl)c4)nn32)cc1OC (stereo not given)	inactive: -0.249%
CCN1C(=O)c2ccccc2S(=O)c2ccc(C(=O)NCc3ccccc3OC)cc21 (stereo not given)	inactive: -6.96%
O=C(O)c1c2c(nc3ccc(S(=O)(=O)N4CCC(C(=O)NCc5ccc(Cl)cc5)CC4)cc13)CCCC2	inactive: -5.49%
COc1cccc(CNC(=O)Cn2c(SCC(=O)Nc3ccc(C)c(C)c3)nc3ccccc32)c1	inactive: 9.08%
CSc1ccc(NC(=O)Cn2nnnc2-c2ccccc2F)cc1	inactive: -1.58%
COc1ccc(S(=O)(=O)NCC(c2ccco2)N2CCN(c3ccccc3F)CC2)cc1C (stereo not given)	inactive: 0.264%
COc1cc(/C=C/c2nc3cc(Cl)ccc3c(=O)n2-c2ccc(C)cc2C)cc(OC)c1OC	inactive: 11.4%
CCOC(=O)c1c(C)oc2nc(C)nc(N3CCN(c4cccc(C)c4C)CC3)c12	inactive: -9.95%

Structure (SMILES)	activity change, negative = inhibition
COc1ccc(Nc2ncnc3c2nc2n3CCCC2)cc1Cl	inactive: -8.49%
COc1nnc(-c2ccc(N3CCCCC3)c(NC(=O)c3ccccc3)c2)c2ccccc12	inactive: -2.05%
O=C(NCC(c1cccnc1)N1CCc2ccccc21)C(=O)Nc1ccccc1F (stereo not given)	inactive: -3.27%
CCc1cccc(NC(=O)c2cccc3c2C(=O)N(C2CCCCC2)C3)c1	inactive: -0.676%
CC(NC(=O)c1cc(-c2ccc(Cl)cc2)on1)c1ccccc1 (stereo not given)	inactive: -13.3%
CCOC(=O)c1c(C)n(S(=O)(=O)c2ccc(C)cc2)c2ccc(NS(=O)(=O)c3ccc(C)cc3)cc12	inactive: 0.127%
CCOC(=O)c1nnn(CC(=O)NC(=O)Nc2ccc(F)cc2)c1C(=O)OCC	inactive: -9.03%
COc1ccc(CNC(=O)c2ccc3c(c2)N(Cc2ccccc2)CCS3)cc1	inactive: -11.1%
Cc1ccccc1Nc1nnc(-c2ccc(C)c(S(=O)(=O)N3CCCCC3)c2)c2ccccc12	inactive: 1.89%
Cc1ccccc1C(=O)Nc1ccc2oc(-c3ccc(Cl)c(Cl)c3)nc2c1	inactive: 1.38%
CC(C)Oc1ccc(C(=O)Nc2nc3c(s2)CC(C(C)(C)C)CC3)cc1 (stereo not given)	inactive: 2.31%
CC1Cn2cc(C(=O)Nc3ccccc3C(F)(F)F)c(=O)c3c(Cl)ccc(c32)O1 (stereo not given)	inactive: -3.83%
O=C(NCC(c1ccc2c(c1)OCO2)N1CCN(c2ccccc2)CC1)c1ccccc1 (stereo not given)	inactive: -4.1%
Cc1oc2ncn(CC(C)C)c(=O)c2c1C(=O)N(Cc1ccccc1)C(C)C	inactive: 5.63%
Cc1nc2nc(C(F)(F)F)[nH]n2c(=O)c1Cc1ccccc1	inactive: 3.24%
COc1cc(OC)c(NC(=O)c2cn(C)c(=O)c3cc(OC)c(OC)cc23)cc1Cl	inactive: -9.75%
O=C(/C=C/c1ccccc1)N1CCN(Cc2cc(=O)n3nc(-c4ccccc4Cl)sc3n2)CC1	inactive: 14.8%
Cc1ccc(Cn2c(C)c3cnn(CC(=O)N4CCN(c5ccc(F)cc5)CC4)c(=O)c3c2C)cc1	inactive: 1.38%
O=C(CN1C(=O)C2(SCC(=O)N2c2ccc(Cl)cc2)c2ccccc21)NCCc1ccccc1 (stereo not given)	inactive: -4.57%
COc1ccc(Cl)cc1NS(=O)(=O)c1c(C)[nH]c(=O)[nH]c1=O	inactive: -10.1%

Structure (SMILES)	activity change, negative = inhibition
CCOc1ccccc1NC(=O)c1c(NC(=O)c2ccncc2)sc2c1CCC(C(C)(C)C)C2 (stereo not given)	inactive: 3.27%
Cc1ccc(O)c(NC(=O)CCSc2nc(-c3ccco3)cc(C(F)(F)F)n2)c1	inactive: 5.19%
COc1ccc(Cl)cc1NC(=O)c1c(NCc2cccs2)sc2c1CCCC2	inactive: -18%
Oc1ccc(NCc2ccccc2OCc2ccccc2Cl)cc1	inactive: -27.9%
CN(C)c1ccc(NC(=O)CSC2=Nc3ccccc3C3=NC(CC(=O)NCc4ccc5c(c4)OCO5)C(=O)N23)cc1 (stereo not given)	inactive: 0.251%
Cc1ccc(S(=O)(=O)Nc2c(C)nc3nc(C)[nH]n3c2=O)c(C)c1	inactive: -8.79%
COc1ccc(C(=O)NCc2nnc(SCC(=O)Nc3ccc(F)cc3)n2-c2ccccc2)cc1	inactive: 0.806%
COC(=O)c1ccc(NC(=O)CSc2nc3c(c(=O)n(C)c(=O)n3C)n2Cc2ccccc2)cc1	inactive: -11.7%
CC(C)C(=O)c1cc2c(cc1NC(=O)c1ccccc1F)OCCO2	inactive: -0.771%
Cc1ccc(COc2cccc3cc(-c4noc(-c5ccc(C)cc5)n4)c(=O)oc23)cc1	inactive: 6.48%
Cc1ccc(C(=O)c2oc3ccccc3c2NC(=O)COc2ccc(C(C)(C)C)cc2)cc1	inactive: -2.63%
CC(=O)N1CCc2cc(S(=O)(=O)CCC(=O)N3CCN(c4ccccc4F)CC3)ccc21	inactive: -0.403%
Cc1cc(Nc2ccc(Cl)cc2)n2cnnc2n1	inactive: -0.187%
COc1ccccc1Cc1nc2ccccc2nc1SCC(=O)N1CCCc2ccccc21	inactive: -22.1%
Cc1ccccc1-c1noc(-c2cc(C(C)C)[nH]n2)n1	inactive: 2.02%
CCOc1ccccc1N1CC(c2nc3ccccc3n2CCOc2ccccc2OC)CC1=O (stereo not given)	inactive: 0.494%
COc1ccc(-c2nnc(SCC(=O)c3ccc([N+](=O)[O-])cc3)o2)cc1OC	inactive: 0.514%
Cn1nc(-c2ccc(C(=O)Nc3ccc(OC(F)(F)F)cc3)cc2)c2ccccc2c1=O	inactive: 2.15%
O=C(NCc1ccccc1Cl)C(=O)NCC(c1cccs1)S(=O)(=O)c1ccccc1 (stereo not given)	inactive: -6.42%
N#C/C(=C\c1ccc(-c2ccc(Cl)c(C(=O)O)c2)o1)c1nc2ccccc2[nH]1	inactive: 4.21%
